According to the RNAGym collection of RNA variant scans (doi:10.7554/elife.90254):
The source gives no read counts; variants with many changes may rest on few reads.

B1: LINE1-mini (parent)
chain: GGCAGAGCUCAACACAGCGUGGCAAAGUGGCUGUGGCUAGACUGCC

Variants of: B1
Assay: self-cleavage, relative activity (ratio to wild type); higher = more cleavage; in vitro, sequencing; the parent is a self-cleaving ribozyme

Row | Variant | self-cleavage
1 | C3A A14U C23A | 2.29
2 | C3A A6G U28C U34G | 0.12
3 | G2U G5U C13A C23U | 0.02
4 | C3A A14U G36C | 0.28
5 | G2U G7U A41G | 0.02
6 | G2U G27C U43C | 0.01
7 | C3A A14U U38C | 0.13
8 | G2U G29A C42A | 0.07
9 | C3A A14U G33C | 0.06
10 | G2U U9G G27C G35U G44U | 0.02
11 | C3A A12C G30C | 0.03
12 | G2U G22U U32A | 0.04
13 | C3A A6U U9C G33C G36A | 0.03
14 | C3A A4U A11U A16G G29U G35U | 0.01
15 | C3A A12G G29U G30A U38G | 0.03
16 | C3A A4U G44A | 0.64
17 | C3A A12U A26C U32G | 0.09
18 | G2U G17U C31U G35U | 0.08
19 | G2U G35C G44C | 0.03
20 | C3A A6G A14G A16G U20C A25C G33U | 0.01
21 | C3A A6G C45U | 0.13
22 | G2U U20A A24G C42U C45U | 0.01
23 | C3A A12C G21A | 0.28
24 | C3A A6U G29U | 1.32

Row | Variant | self-cleavage
25 | G2U U9A G40U | 0.09
26 | G2U U20A G29U G40A | 0.04
27 | C3A A11U A26C G35U | 0.04
28 | C3A A6U A39C | 0.26
29 | G2U G7U G19A G27U C45A | 0.22
30 | C3A A6C A11C U38G | 0.04
31 | G2U G17U C18U G21C C23A A25G C37G | 0.05
32 | C3A A11C U20A | 0.05
33 | G2U U20G U32C G44C | 0.02
34 | G2U U9G C13A C15G U34A C45G | 0.04
35 | C3A A11C A26U G35C C37A | 0
36 | G2U G22U C23G G27U | 0.29
37 | G2U G21U G22A | 0.11
38 | G2U U34C G35A G40U | 0.08
39 | G2U G7C C15A | 0.02
40 | G2U G17U C31U | 0.04
41 | G2U G19C G22U C23U C31U | 0.22
42 | G2U U9C A24C | 0.02
43 | G2U G7C G40U | 0.06
44 | G2U G17A G19U A39C | 0.04
45 | G2U U28G G33U | 0
46 | C3A A6C C31U A39U U43C | 0.07
47 | G2U G7A A39G G40C | 0.02
48 | C3A A4G G22A C42A | 0.19

Row | Variant | self-cleavage
49 | G2U U9A G35C C45U | 0.01
50 | C3A A14C G40U A41U | 0.03
51 | G2U U43C C45U | 0.04
52 | G2U G7C C15G G44U | 0.06
53 | G2U G30U G36A | 0.03
54 | C3A A24G C31A U32A C46G | 0.5
55 | G2U G30A U43G C46A | 0.01
56 | G2U G22C G36U | 0.01
57 | G2U G5U C18U G21C G33C | 0.02
58 | G2U G7A A11G C15G U20A A41C | 0.01
59 | C3A A4U G27A | 0.08
60 | G2U G22A C31U | 0.02
61 | G2U U9A G19C U43G | 0
62 | C3A A6U C8A C13U G17C U32C | 0.23
63 | G2U G22A G33A | 0.02
64 | G2U G22A G33U | 0.04
65 | C3A A6G C8U U9G | 0.96
66 | G2U U9C G27U U34C A39C | 0.02
67 | G2U U9C G35U G36C G40A | 0
68 | C3A A6C G36U C37A | 0.22
69 | G2U U43A G44A | 0.05
70 | G2U G22C A24C C31A C37G | 0.16
71 | C3A A16U C23U C31A G40C | 0.06
72 | C3A A6U C10G C23A A26U U34C G36C | 0.01

Row | Variant | self-cleavage
73 | G2U G5U G19C | 0.02
74 | G2U G17A C18A U20C A26C U34C | 0.01
75 | C3A A14G G21U A26U U28C U32C C37G C42A | 0.04
76 | G2U G17A A24C G30U | 0.01
77 | G2U G36C G40U C42A | 0.04
78 | C3A A6U C18A A41C C42G | 0.04
79 | G2U U9A C15U G17C | 0.05
80 | C3A A16U G21U | 0.07
81 | C3A A11G U34C | 0.09
82 | C3A A6G A39C | 0.06
83 | C3A A4C C15G | 0.24
84 | G2U G7U A39C | 0.01
85 | C3A A4G C8U A25C G30U U34C | 0.11
86 | G2U G7C C15G G29A C37G | 0.11
87 | C3A A4C G40C | 0.01
88 | G2U G7A A24G C37U U43C | 0.04
89 | C3A A4U U32A G40U C42G | 0.08
90 | C3A A12C C46G | 0.18
91 | C3A A6G G17U C45A | 0.09
92 | C3A A4U C8U | 0.15
93 | C3A A16U C18A | 0.15
94 | G2U G7C G19U G35C A39C | 0.08
95 | C3A A11U A14C C23U C31U U32C U34G | 0.01
96 | G2U U20C A25U | 0.04

Row | Variant | self-cleavage
97 | G2U U32G U38G G44C | 0.02
98 | C3A A4U U38A | 0.17
99 | G2U G27U U34A C45A | 0.06
100 | C3A A4G G33U | 0.11
101 | C3A A12U A26C | 0.59
102 | C3A A14U G40C | 0.04
103 | C3A A11G G36A C37G G40C | 0.04
104 | C3A A11G C18U | 0.02
105 | C3A A6G C15A G22U A24U G36U C45G | 0.16
106 | C3A A24U G27A U34C | 1.13
107 | C3A A16C C23G C37U A41U | 0.03
108 | G2U U9C A14U C15A G17A C45U | 0.01
109 | G2U G17A G33U C42A C45A | 0
110 | C3A A14G G22U A26C | 0.46
111 | C3A A12C G30A U38C | 0.05
112 | G2U U43G C46G | 0.02
113 | G2U G33U C45U | 0.02
114 | G2U G7A G36U | 0.05
115 | G2U U9G G35C A41G G44A C45A | 0.02
116 | G2U G5U C13A C18G U32C | 0.02
117 | G2U G19C G21A | 0.08
118 | C3A A4U A11G C23A G33U G36U G44C | 0
119 | G2U G5U G7C C15U | 0.1
120 | C3A A6U A14G A24U U28C | 0.33

Row | Variant | self-cleavage
121 | G2U U9A C31U | 0.09
122 | G2U G19C U38A C42U | 0.02
123 | G2U G27C G33A G35A | 0
124 | C3A A4C A16U C42G | 0.03
125 | G2U G22C G30C G44U | 0.04
126 | G2U G30C U32C U34A | 0.02
127 | G2U U28G U43C | 0.17
128 | G2U G19C C23A A25U C31U G33A A41U | 0.06
129 | G2U U34C A41G C45U | 0.01
130 | G2U G17A C23A C46U | 0.05
131 | G2U G22U C42A | 0.03
132 | C3A A6G C31A | 0.12
133 | C3A A6C U20A | 0.35
134 | C3A A14C G27C | 0.13
135 | G2U G19C G33C | 0.01
136 | C3A A4G A25U G27U | 0.04
137 | C3A A14U A16C C23A A26U | 0.12
138 | C3A A16C G27U G44C | 0.16
139 | C3A A6G C10A C31U U38A C45A | 0.04
140 | C3A A4U C15G G21U C23G | 0.17
141 | C3A A6G G36C C46A | 0.11
142 | C3A A11C C13A A25C C31A | 0.01
143 | C3A A14G A16U G40A | 0.15
144 | G2U G30C G40A | 0

Row | Variant | self-cleavage
145 | C3A A24U C45G | 0.19
146 | G2U U28C G29A | 0.04
147 | C3A A24U G27C U38A | 1.71
148 | G2U G21U G35C | 1.01
149 | G2U G36A A39G | 0.15
150 | C3A A4U C46U | 0.35
151 | C3A A4C G5U A12C A25U U28C G33U | 0.06
152 | C3A A16G G22C A25U | 0.03
153 | C3A A6G C10A A11U A41U | 0.04
154 | C3A A11G C15G G36C A41U | 0.01
155 | C3A A14U C23A U34C C45U | 0.37
156 | C3A A12G G33A | 0.43
157 | G2U U20C G22U A25C G30A C37A | 0.02
158 | C3A A11U G22A | 0.01
159 | C3A A4C U20C G22A G40C | 0.14
160 | G2U G7U C10G A12C C18G U28A | 0.01
161 | G2U U28G A39C | 0.06
162 | G2U G27C G29A G33A | 0.02
163 | C3A A11U G19C G21A U32A G35A C45G | 0.03
164 | G2U U32A G33U A41C | 0.02
165 | G2U G22U C23A | 0.21
166 | G2U G19A A24G G44U | 0.02
167 | G2U U9G A11C G19A G27A G35C | 0
